# PubChem BioAssay AID686970 (National Center for Advancing Translational Sciences (NCATS), 2013)
# About 6,000 (1.7%) of roughly 360,000 compounds were called active. This list was built around the results that the source calls inconclusive (neither active nor inactive); the mix of calls is not that of the screen. Calls come from the whole dose curve; as a rule, active = well fitted cell-killing curve with a large enough effect; inconclusive = small, poorly fitted or top-dose-only effect, or effect the other way; inactive = flat fitted curve, though single readings scatter. Potencies of inconclusive entries are left out as doubtful fits.
# Assay: qHTS for induction of synthetic lethality in tumor cells producing 2HG: qHTS for the HT-1080-NT fibrosarcoma cell line;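 note: NT is the 2HG producing partner of a matched IDH1 knockdown line; nearly all actives have a fitted effect of over 55% in size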;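 for activity, negative = less viability: 0% = DMSO-treated cells and -100% = media-only wells without cells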
# Details: HT-1080-NT fibrosarcoma viability, CellTiter-Glo ATP luminescence, 48 h; activity, negative = less viability: at 46.1 µM (top of the series) unless noted
# Outline: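 Viability by CellTiter-Glo luminescence after 48 h compound exposure at 37C of HT-1080-NT cells (750/well, RPMI, 5% FBS). % activity scaled between DMSO wells and medium-only wells, then curve-fitted and categorized by curve class.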
# Potency is the fitted concentration of half-maximal effect; tags give direction and shape of the fitted curve.
Structure (SMILES),Potency,"activity, negative = less viability"
CC1(C(=O)Nc2ccc(F)c(Cl)c2)Cc2c(-c3ccc(C(N)=O)cc3)ccnc2O1 (stereo not drawn),"inconclusive [cytotoxic, single point]",–
CNS(=O)(=O)c1cccc(C(=O)OCc2cc(=O)oc3c(C)c(O)ccc23)c1,"inconclusive [cytotoxic, single point]",–
O=C1/C(=C/c2cccc([N+](=O)[O-])c2)CCc2ccccc21,"inconclusive [cytotoxic, single point]",–
CC(NC(=S)Nc1ccc(S(=O)(=O)N2CCOCC2)cc1)C1CC2CCC1C2 (stereo not drawn),"inconclusive [cytotoxic, single point]",–
COC(=O)[C@]12CCCCC=C1N(Cc1ccc(Cl)cc1Cl)C(=O)[C@H](CC(=O)N1CCN(C(=O)c3ccco3)CC1)C2,"inconclusive [cytotoxic, single point]",–
COc1cccc(CNc2nc3cc(-c4ccccc4CO)sc3c(=O)n2C)c1,active: 29.1 µM,–
COc1ccc(-c2nc3c(c(=O)[nH]c(=O)n3Cc3ccccc3)n2CCO)cc1,–,inconclusive: -31.7% [cytotoxic]
COc1ccccc1CCC(=O)OCc1csc(CC(=O)Nc2ccccc2C)n1,–,inactive: 12%
CC(=O)N(CC(C)C(=O)O)c1c(I)cc(I)c(N)c1I (stereo not drawn),–,inconclusive: 5.18%
CNC[C@H](CC1CCCCC1)NC[C@H](Cc1ccccc1)NCCC12CC3CC(CC(C3)C1)C2,active: 20.6 µM,–
O=C(CCc1ccccc1)Nc1sc2c(c1C(=O)O)CCCC2,"inconclusive [cytotoxic, single point]",–
Cc1cccc(C(=O)CC(=O)c2cc(Cl)ccc2O)c1,"inconclusive [cytotoxic, single point]",–
ON=C1c2ccccc2-c2ccc(O)cc21,"inconclusive [rising, partial curve]",–
O=C(COC(=O)c1ccc(S(=O)(=O)N2CCCC2)cc1)Nc1ccc(Cl)cc1,–,inactive: 12%
Cc1ccccc1CN(CC(=O)Nc1cccc([N+](=O)[O-])c1)S(=O)(=O)c1ccc(Cl)cc1,"inconclusive [cytotoxic, single point]",–
O=c1[nH]c2ccc(S(=O)(=O)N3CCN(c4ccccc4)CC3)cc2[nH]c1=O,–,inconclusive: -8.39% [cytotoxic]
Cc1ccc(N(CC(=O)N2CCCCCC2)S(C)(=O)=O)c(C)c1,–,inactive: 0.127%
C#CCn1c(=NC(=O)c2cc(-c3cccs3)nc3ccccc23)sc2cc(S(N)(=O)=O)ccc21,"inconclusive [cytotoxic, single point]",–
Cc1ccc(-n2c(SCC(=O)Nc3ncc(Cl)cc3Cl)nc3ccccc32)cc1,–,inconclusive: -32.8% [cytotoxic]
CC(=O)c1ccc(NS(=O)(=O)c2cc(-c3cnc(C4CC4)o3)ccc2C)cc1,active: 20.6 µM,–
CC(=O)C1=C(C)NC(SCC(=O)c2ccc(Cl)cc2Cl)=C(C#N)C1c1ccco1 (stereo not drawn),"inconclusive [cytotoxic, single point]",–
CCc1ccc(Nc2n[n+](-c3ccccc3)c(-c3cccc(Cl)c3Cl)s2)cc1,"inconclusive [cytotoxic, partial curve]",–

Structure (SMILES),Potency,"activity, negative = less viability"
CCCCN1CC[C@H]2C=CC[C@@H](C(=O)N3CCN(c4ccccc4)CC3)[C@H]2C1=O,"inconclusive [rising, single point]",–
CN(C)c1ccc(N=Cc2cccn2C)cc1,–,inconclusive: -30.8% [cytotoxic]
CN(C)CCCN(C(=O)c1ccc(S(=O)(=O)N(C)Cc2ccccc2)cc1)c1nc2c(F)cccc2s1,"inconclusive [cytotoxic, single point]",–
Cc1onc(-c2c(F)cccc2Cl)c1C(=O)c1ccccc1O,"inconclusive [cytotoxic, partial curve]",–
O=C(ONC1=NCCCCC1)c1ccc(Cl)cc1,active: 16.4 µM,–
COc1cccc(CN2CCC2(C)C(=O)Nc2cccc(Oc3ccccc3)c2)c1F (stereo not drawn),"inconclusive [cytotoxic, single point]",–
O=C(NCCn1cc(SCc2ccc(F)cc2)c2ccccc21)c1c(F)cccc1F,"inconclusive [cytotoxic, single point]",–
CCCC(=O)Nc1cc(C(=O)O)ccc1S(=O)(=O)c1ccc(C)cc1,–,inactive: 2.08%
O=C(NCCS(=O)(=O)N1CCN(c2ccc(F)cc2)CC1)C12CC3CC(CC(C3)C1)C2,–,inactive: -2.24%
FC(F)(F)c1nnc(-c2ccccc2)nc1Sc1ccc(Cl)cc1,"inconclusive [cytotoxic, single point]",–
CC1CC(Nc2ccccc2)c2ccccc2N1C(=O)c1ccccc1F (stereo not drawn),–,inactive: 1.71%
O=C1C2CC=CCC2C(=O)N1c1ccc(N2CCN(c3ccccn3)CC2)c([N+](=O)[O-])c1 (stereo not drawn),"inconclusive [rising, single point]",–
CN(CC(=O)Nc1ccccc1Br)C(=O)CCCSc1nc2ccccc2[nH]1,–,inactive: 1.13%
O=C1c2ccccc2C(=O)c2[nH]cnc21,"inconclusive [cytotoxic, single point]",–
CC1(C(=O)NS(=O)(=O)c2ccc(C#N)cc2)CCN1C(=O)CC1CC1 (stereo not drawn),"inconclusive [rising, single point]",–
CCCOc1cccc(-c2cc(C(=O)N/N=C/c3ccccn3)c3ccccc3n2)c1,–,inactive: -28.1%
Cn1c(N)c(C(=O)COc2ccc(C#N)cc2)c(=O)n(C)c1=O,"inconclusive [rising, single point]",–
COc1ccc(S(=O)(=O)N2CCOC23CCN(S(=O)(=O)c2cc(C)ccc2C)CC3)cc1,–,inactive: -1.53%
O=C(O)CN1C(=O)/C(=C\C(Br)=C\c2ccccc2)SC1=S,"inconclusive [cytotoxic, single point]",–
O=C1NC(c2cccc3ccccc23)Nc2ccccc21 (stereo not drawn),active: 1.3 µM,–
CC1=C(C(=O)Nc2ccc([N+](=O)[O-])cc2)C(c2cccc(C(F)(F)F)c2)NC(=S)N1c1ccccc1 (stereo not drawn),"inconclusive [cytotoxic, single point]",–
